Out of some 44,000 compounds screened, about 340 (0.77%) were called active. Another 5% or so got no clear call; they are omitted. Calls follow the shape of the dose curve; as a rule, active = well fitted inhibition curve with a large enough effect; inconclusive = small, poorly fitted or top-dose-only effect; inactive = flat fitted curve, though single readings scatter. The list shows a part of the results.
Experiment: Acumen qHTS Assay for Inhibitors of the mTORC1 Signaling Pathway in MEF (Tsc2-/-, p53-/-) Cells: Sytravon;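 also: plate controls were DMSO for no effect and rapamycin for full effect; nearly all actives have a fitted effect of over 50% in size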
Details: phospho-rpS6 immunofluorescence/PI, 24 h; series mostly up to 38.3 µM; activity change, negative = inhibition: at the top concentration
Summary of the method: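 Readout is phospho-S6 Alexa 488 signal normalized to PI per well, reported as % active cells with thresholds set from rapamycin (7.5 nM) and DMSO controls. Cells: Tsc2-/-, p53-/- MEFs, 24 hrs compound at 37 C; PI cell number serves as viability.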

Activity change, negative = inhibition, inactive:
N#Cc1ccccc1Cn1nnc2c(=O)[nH]c(C3CCCN(S(=O)(=O)c4ccc(F)cc4)C3)nc21 (stereo unspecified) -13.1%
O=C(Nc1nc2nc(-c3ccccc3)cc(=O)n2[nH]1)c1ccc(F)cc1 5.65%
CCOc1ccc(S(=O)(=O)NCCc2sc(-c3ccc(C)cc3)nc2C)cc1 -11%
CCOc1ccccc1N1CC(c2nc3ccccc3n2CCCOc2ccccc2OC)CC1=O (stereo unspecified) -12.8%
COc1cccc(CNC(=O)Cn2ccc3cc(S(=O)(=O)N4CCCC4)ccc32)c1 -16.2%
O=C(NCc1ccccc1)C1CCC(CNS(=O)(=O)c2ccc(Br)s2)CC1 (stereo unspecified) 0.389%
CC1CCc2nn(CC(=O)Nc3cccc(C(F)(F)F)c3)c(=O)cc2C1 (stereo unspecified) 3.56%
COc1cc(NC(=O)Cn2c(=O)n(C(C)C)c(=O)c3oc4ccccc4c32)cc(OC)c1 1.64%
O=C(Nc1cccnc1Cl)c1cc(-c2ccc(Cl)cc2)on1 -2.32%
CCc1ccc(NC(=O)Cn2nnc(C(=O)NCc3ccco3)c2N)cc1 -0.938%
Cc1ccccc1C(=O)Nc1nnc(SCc2cc(=O)c3c(C)ccc(C)c3[nH]2)s1 0%
CC1CCN(S(=O)(=O)c2cc(C(=O)NCc3ccc(F)cc3)n(C)c2)CC1 -0.355%
COc1cccc(COC(=O)c2ccc(-c3nnn(Cc4ccccc4)n3)cc2)c1 -3.63%
O=C1C(c2ccc(F)cc2)N(CCc2ccccc2)C(=O)CN1C1CCCCC1 (stereo unspecified) -5.84%
CC(C)c1ccc(C(=O)Nc2cccc3cccnc23)cc1 -12.2%
COc1ccc(CN(C(=O)Nc2ccc(C)c(F)c2)C2CCN(C(C)=O)CC2)cc1 -0.656%
CCOc1ccc(CCNS(=O)(=O)c2c(C)nc3sc(C)cn3c2=O)cc1OCC 2.99%
CC(=O)c1ccc(NC(=O)CCc2c(C)nn(-c3ccc4nncn4n3)c2C)cc1 -23.1%
CSc1ccc(CCNC(=O)c2cc3n(n2)CCCN(Cc2ccc(C)cc2)C3=O)cc1 5.53%
CCC1CN(C(=O)N2CCC(C(=O)NCCOC)CC2)c2ccccc2O1 (stereo unspecified) -10.5%
CCc1ccc(NC(=O)C2CCCN(S(=O)(=O)c3c(C)[nH]c(=O)[nH]c3=O)C2)cc1 (stereo unspecified) -15.8%
COC(=O)c1ccc(Cn2nc(-c3ccc(C)c(C)c3)ccc2=O)cc1 2.22%
COc1ccc(Cl)cc1Nc1ncnc2c1nc1n2CCCC1 -15.3%
O=C(CCS(=O)(=O)c1cc2c3c(c1)CCN3C(=O)CC2)NCc1ccc(F)cc1 9.37%
COCCc1nn2c(=O)cc(COC(=O)COc3ccccc3C)nc2s1 4.33%
CC(C)c1ccc(NC(=O)C2CCCN(S(=O)(=O)c3cccc4nonc34)C2)cc1 (stereo unspecified) 0.118%
O=c1c2ccccc2n2c(-c3ccc(F)c(F)c3)nnc2n1CCc1ccccc1 1.58%
Cc1cc(C)c(NC(=O)CSc2nnc3[nH]c(=O)cc(C)n23)c(C)c1 -0.868%
CCC(=O)Nc1ccc2nc(SCC(=O)N3CCc4ccccc43)sc2c1 -9.49%
CCOC(=O)c1ccccc1NC1(c2ccc(OC)cc2)C(=O)c2ccccc2C1=O -3.19%
CCOC(=O)c1c(S(=O)(=O)N2CCCC(C(=O)Nc3ccc(C)cc3C)C2)c(C)n(CC)c1C (stereo unspecified) -1.04%
COC(=O)c1ccc(C2c3c(oc4cc(C)c(C)cc4c3=O)C(=O)N2c2ccccn2)cc1 (stereo unspecified) -16.2%
CCOc1ccc(S(=O)(=O)Nc2ccc3c(c2)c(C(C)=O)c(C)n3S(=O)(=O)c2ccc(OCC)cc2)cc1 16%
CC(=O)Nc1ccc(C(=O)CSc2nnc3cc(C)c4ccccc4n23)cc1 -1.26%
Cc1ccc(NC(=O)c2sc3nc(-c4ccc(F)cc4)cn3c2C)c(C)c1 5.49%
COc1ccc(CCC(=O)NC2CC(=O)N(c3ccc(C)c(C)c3)C2)cc1 (stereo unspecified) 2.98%
Cc1ccc(CNC(=O)c2ccc(-c3nc(CN4CCc5ccccc54)c(C)o3)cc2)cc1 2.55%
CCCCNC(=O)c1ccc2c(=O)n(-c3ccccc3)c(=O)[nH]c2c1 -1.3%
O=C(NCc1ccc(Cl)cc1)C(=O)NCC(c1ccco1)S(=O)(=O)c1cccs1 (stereo unspecified) -3.23%
CCOC(=O)c1ccc(NC(=O)C2CCN(S(=O)(=O)c3ccc(C)cc3)CC2)cc1 -3.42%
COc1ccccc1CNC(=O)CS(=O)Cc1nc(-c2ccc(OC)c(OC)c2)oc1C (stereo unspecified) 3.52%
CC(=O)c1nn(-c2ccc(OC(F)(F)F)cc2)nc1Nc1ccc(C)cc1 1.59%
CCC1CN(C(=O)N2CCC(C(=O)O)CC2)c2cc(C)ccc2O1 (stereo unspecified) -0.918%
Cc1ccc(CCNC(=O)c2ccc(CSCc3ccccc3C)o2)cc1 -11.3%
COc1ccc(Nc2cc(C)c3cc(NC(=O)Cc4c(F)cccc4Cl)ccc3n2)cc1 -4.69%
CCN(Cc1ccccc1)C(=O)C1CCN(S(=O)(=O)c2c(C)noc2/C=C/c2ccc(C)cc2)CC1 -9.3%
Cc1ccc2nc(-c3ccc(NC(=O)COc4ccc(Cl)c(C)c4)cc3)sc2c1 -10.9%
COc1ccccc1CNC(=O)c1sc2nc3n(c(=O)c2c1C)CCC3 2.79%
CCOc1ccc(CNS(=O)(=O)c2ccc(-c3cc(C(F)(F)F)on3)s2)cc1 -8.68%
CCn1c(SCc2ccccc2F)nc(=O)c2c(C(=O)OC)cc(C3CC3)nc21 2.52%
CCCNc1ccc(-c2nc(-c3ccncc3)no2)cc1[N+](=O)[O-] 1.59%
CCOc1ccc(-c2cc(C(=O)NCc3ccc(C)cc3)c3ccccc3n2)cc1 6.74%
CCOc1ccc(Cl)cc1C1CC(=O)Nc2cc(OC)c(OC)c(OC)c21 (stereo unspecified) 4.68%
Cc1cccc(N2CCN(C(=O)c3ccc(NC(=O)c4nsc5ccccc45)cc3)CC2C)c1 (stereo unspecified) -22.1%
CCOC(=O)C1CCCN(C(=O)Cn2ncc3c([nH]c4ccc(C)cc43)c2=O)C1 (stereo unspecified) 6.88%
CCCC(CCC)C(=O)Nc1cccc(-c2cn3cccnc3n2)c1 -2.14%
Cc1ccc(C)c(N2CCN(C(=O)c3ccc4[nH]c(C)c(C)c4c3)CC2)c1 -15.8%
COC(=O)c1c(NC(=O)CCCOc2ccccc2C)sc2c1CCC(C)C2 (stereo unspecified) -4.6%
Cc1ccc(OCc2nc(-c3ccc(C(=O)NCCc4ccc(S(N)(=O)=O)cc4)cc3)oc2C)cc1 -1.86%
COc1ccccc1CNC(=O)CN1C(=O)CCc2cc(S(=O)(=O)N3CCOCC3)ccc21 0%
O=C(Nc1ccc2nc(SCC(=O)N3CCCC3)sc2c1)c1ccccc1F 0.0925%
COc1cc2[nH]c(=O)n(CCCC(=O)NCc3ccccc3)c(=O)c2cc1OC -7.54%
Cc1ccc(NC(=O)CN2C(=O)CCc3cc(S(=O)(=O)N4CCCCC4)ccc32)cc1N(C)C 13.9%
CC1CN(C(=O)N2CCC(C(=O)NCc3ccco3)CC2)c2cc(Cl)ccc2O1 (stereo unspecified) 4.77%
CCOc1ccc(NC(=O)CNS(=O)(=O)c2ccc(Br)s2)cc1 -17.3%
O=C(CSc1nc(-c2cccs2)nc2cc(=O)[nH]n12)Nc1ccc(F)cc1 6.05%
CCOC(=O)c1sc2ccccc2c1S(=O)(=O)N1CCN(c2ccccc2)CC1 -10%
COc1ccc(-c2noc(CSc3nnc(-c4ccc(Cl)cc4)n3C)n2)cc1OC 1.7%
CCc1cnc2c(c1SCC(=O)Nc1cc(Cl)ccc1OC)c(=O)n(C)c(=O)n2C -5.86%
CCOC(=O)c1cnc2c(C(F)(F)F)cccc2c1Nc1cccc(C(=O)OC)c1 1.38%
CCOc1ccccc1NC(=O)CSc1nc2c(oc3ccccc32)c(=O)n1Cc1ccco1 -3.67%
Cc1ccc(CNC(=O)C2CCCN(S(=O)(=O)c3ccc4c(ccn4C)c3)C2)cc1 (stereo unspecified) 5.43%
CCCCN(CCCC)CCNC(=O)c1cc(=O)[nH]c2ccc(S(=O)(=O)N3CCCCCC3)cc12 -21.8%
CC(C)c1ccc(NC(=O)CSc2nc(=O)n(Cc3cccnc3)c3c2CCC3)cc1 -4.98%
CCc1ccc(CNC(=O)C2CCN(C(=O)N3CC(CC)Oc4ccc(C)cc43)CC2)cc1 (stereo unspecified) 4.18%
Cc1cc(C)c(NC(=O)CSc2ncc(S(=O)(=O)c3ccc(C(C)(C)C)cc3)c(=O)[nH]2)c(C)c1 0.177%
O=C(NC1CCCC1)c1ccc2c(c1)N(Cc1ccccc1Cl)C(=O)c1ccccc1S2 0.57%
CCc1ccccc1Nc1nn2c(=O)c3ccc(C(=O)NC4CCCCC4)cc3nc2s1 -12.2%
CCOC(=O)c1c(N)n(-c2cccc(C)c2C)c2nc3ccccc3nc12 2.65%
Cc1ccn2c(=O)c(C(=O)NCc3ccccc3Cl)c(O)nc2c1 0.0496%
COc1cc(OC)c(NC(=O)c2c3c(nn2C)-c2ccccc2SC3)cc1Cl 1.3%
COc1cccc(C(=O)Nc2ccc(NC(=O)c3ccc(C(C)(C)C)cc3)cc2)c1 -13.9%
COC(=O)C(CCSC)NC(=O)c1cc2c(n(-c3ccc(OC)cc3)c1=O)CC(C)(C)CC2=O (stereo unspecified) -13.7%
COc1ccc(S(=O)(=O)Nc2cccc(-c3ccc(N4CCCCCC4)nn3)c2)c(OC)c1 -0.36%
COc1cccc2c1Oc1ncccc1N(c1ccc(C(=O)NCc3cccc(C)c3)s1)C2 2.45%
CC1(C(=O)Nc2ncc(Cc3ccc(Br)cc3)s2)Cc2ccccc2C(=O)O1 (stereo unspecified) -7.89%
Cc1ccc(N2CC(NC(=O)C3CCCCC3)CC2=O)cc1C (stereo unspecified) -4.76%
CCC(C)NC(=O)c1ccc2nc(Cc3ccccc3)oc2c1 (stereo unspecified) 2.19%
COc1ccc(-c2nc3scc(CCNC(=O)Cc4ccc(F)cc4)n3n2)cc1 4.25%
O=C(Nc1cc(Cl)cc(Cl)c1)c1ccc(F)c(S(=O)(=O)NCc2ccccc2Cl)c1 1.9%
COc1cc(OC)c(Nc2c3c(nc4nc(-c5cccs5)nn24)CCCC3)cc1Cl 3.38%
CCN(c1ccccc1)S(=O)(=O)c1nnc(NC(=O)c2ccco2)s1 6.38%
Cc1ccccc1-c1nnc(SCC(=O)N2CCCCC2)o1 2.85%
CCOc1ccc(NS(=O)(=O)c2ccc3nc(-c4ccccc4)[nH]c3c2)cc1 -4.05%
Cc1ccc(-n2ncc(C(=O)Nc3c(Cl)cccc3Cl)c2C2CCNCC2)cc1 -6.29%
Cc1nn(-c2ccccc2)c2sc(C(=O)Nc3cccc(O)c3)cc12 11.1%

— PubChem BioAssay AID493208 (National Center for Advancing Translational Sciences (NCATS), 2011)
